# The least precise scores are not listed. The source holds two more conditions with little spread; they are left out. In variant names, del marks residues removed and ins residues inserted between the two positions. For some of these results: The data file names ogerin without a concentration.
# B1: GPR68, Q15743 (parent)
# chain: MGNITADNSSMSCTIDHTIHQTLAPVVYVTVLVVGFPANCLSLYFGYLQIKARNELGVYLCNLTVADLFYICSLPFWLQYVLQHDNWSHGDLSCQVCGILLYENIYISVGFLCCISVDRYLAVAHPFRFHQFRTLKAAVGVSVVIWAKELLTSIYFLMHEEVIEDENQHRVCFEHYPIQAWQRAINYYRFLVGFLFPICLLLASYQGILRAVRRSHGTQKSRKDQIQRLVLSTVVIFLACFLPYHVLLLVRSVWEASCDFAKGVFNAYHFSLLLTSFNCVADPVLYCFVSETTHRDLARLRGACLAFLTCSRTGRAREAYPLGAPEASGKSGAQGEEPELLTKLHPAFQTPNSPGSGGFPTGRLA
# Legend:
# [1] = variants of: B1; test: cAMP reporter score (Enrich2 score, wild type = 0); higher = more signal; HEK293T, FACS bins
# [2] = variants of: B1; test: surface expression score (Enrich2 score, wild type = 0); higher = more signal; HEK293T, FACS bins
Variant,cAMP reporter score ([1]; pH 5.5),cAMP reporter score ([1]; pH 6),"cAMP reporter score ([1]; pH 6, modulator: ogerin)","cAMP reporter score ([1]; pH 6.5, modulator: ogerin)",surface expression score [2]
M158_H159insGSG,-1.27,-0.729,-1.06,-1.23,0.378
H159Y,-0.654,-0.377,-0.609,-0.65,-0.489
H159M,-0.78,-1.45,-1.14,-1.59,-0.224
H159W,1.66,0.495,0.395,0.252,-1.01
H159L,-0.363,0.033,-0.934,-1.33,-1.02
H159D,-0.669,-1.32,-2.21,–,-0.431
H159K,0.545,0.37,-0.173,-0.678,0.398
H159A,-0.929,-0.701,-1.5,-1.38,-0.151
H159G,-0.632,-1.05,–,-2.19,0.335
H159T,0.335,-0.91,-0.776,-1.81,-0.111
H159S,0.346,-0.365,-1.09,-0.567,0.937
H159E,0.108,-0.9,-1.23,-0.667,0.334
H159F,-0.102,-0.355,-0.258,0.021,-0.994
H159N,1.3,-0.058,0.765,-0.61,0.676
H159Q,0.5,0.383,-0.84,-1.27,1.29
H159R,-0.322,-0.605,-1.23,-0.42,-0.294
H159V,-0.901,-0.711,-0.573,-1.17,-0.834
M158Y,1.2,0.412,1.2,1.15,0.196
M158N,1.91,1.01,1.47,–,0.699
M158P,-0.363,-1.74,-1.76,-1.27,-2.46
M158S,0.558,0.352,-0.271,-0.815,0.476
M158W,-0.483,-0.93,-0.428,-0.869,-0.977

Variant,cAMP reporter score ([1]; pH 5.5),cAMP reporter score ([1]; pH 6),"cAMP reporter score ([1]; pH 6, modulator: ogerin)","cAMP reporter score ([1]; pH 6.5, modulator: ogerin)",surface expression score [2]
M158T,-1.28,-1.54,-1.31,-1.7,-1.18
M158V,-0.46,-0.206,-0.121,-0.336,-0.496
M158Q,0.101,-0.415,0.064,-0.26,-0.12
M158L,0.172,-0.834,0.398,-0.102,0.403
M158R,-0.652,-0.074,-0.03,-1.11,–
H159_E160insGSG,-1.05,-1.04,-1.04,-1.24,0.202
M158del,-0.537,–,-1.63,–,-0.954
M158_H159del,-0.876,-1.21,-1.78,-1.37,-1.27
E160_V162del,-1.08,-1.23,-1.63,-0.99,1.64
E161H,0.144,-0.379,0.2,-1.09,0.685
E161R,0.217,-0.013,0.157,-0.1,1.41
E161D,0.247,-0.608,-0.328,-0.969,0.284
E161I,-0.369,-1.05,-0.656,-0.994,-0.262
E161K,-0.349,-1.11,1.01,-0.961,1.14
E161F,-1.32,-1.23,–,-0.232,-0.605
E161M,0.414,3.52,–,–,1.26
E161N,-0.281,3.34,-0.006,–,–
E161Q,-0.646,1.12,1.03,2.7,–
E161C,-1.73,2.52,-0.088,1.74,-1.54
E161P,0.725,2.73,0.575,2.24,0.138
E161A,0.555,3.66,0.6,–,0.87
E161Y,-0.162,-0.19,-0.1,-0.637,2

Variant,cAMP reporter score ([1]; pH 5.5),cAMP reporter score ([1]; pH 6),"cAMP reporter score ([1]; pH 6, modulator: ogerin)","cAMP reporter score ([1]; pH 6.5, modulator: ogerin)",surface expression score [2]
E161L,-0.581,1,0.833,–,1.67
E161S,-0.233,4.95,0.82,2.69,0.038
E161G,0.605,–,1,4.18,0.31
M158_H159insGS,-0.656,-1.47,-1.07,-0.964,0.66
E160_E161insG,-1.14,–,-1.51,-1.03,-0.69
M158_E160del,-1.65,-1.47,-2.59,-1.79,-0.218
E160del,0.336,-0.648,1,-0.022,1.2
E160Q,0.981,–,1.87,4.01,1.54
E160A,-0.398,–,–,–,–
E160D,0.189,1.18,0.974,2.76,0.068
E160L,-0.423,–,-0.629,–,–
E160K,1.14,0.232,1.31,-0.044,1.79
E160G,1.3,4.57,2.18,4.33,-0.106
E160C,0.004,0.913,-0.342,0.795,-0.798
E160T,0.598,–,0.758,3.82,2.62
E160Y,-1.31,0.916,0.176,–,0.697
E160F,-0.592,-0.618,-0.839,2.34,-0.06
E160S,0.778,3.67,0.91,2.58,1.04
E160H,-0.087,–,1.02,1.96,0.925
E160W,-0.819,-1.23,-0.464,0.391,1.47
E160R,1.33,0.581,0.981,0.453,3
